Hit rate of the full screen: of about 310,000 compounds, about 14,000 (4.5%) showed an effect of 50% or more. Effects have a minus sign here. The list shows a part of the results.
Each molecule was assayed against human ether-à-go-go-related gene (hERG) potassium channel (human, UniProt Q12809) (assay: primary screen, population patch clamp on CHO cells stably expressing hERG).
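Further: peak tail current of the secondary pulse compared with the same well before compound.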

human ether-à-go-go-related gene (hERG) potassium channel, sequence (Q12809 whole entry, looked up): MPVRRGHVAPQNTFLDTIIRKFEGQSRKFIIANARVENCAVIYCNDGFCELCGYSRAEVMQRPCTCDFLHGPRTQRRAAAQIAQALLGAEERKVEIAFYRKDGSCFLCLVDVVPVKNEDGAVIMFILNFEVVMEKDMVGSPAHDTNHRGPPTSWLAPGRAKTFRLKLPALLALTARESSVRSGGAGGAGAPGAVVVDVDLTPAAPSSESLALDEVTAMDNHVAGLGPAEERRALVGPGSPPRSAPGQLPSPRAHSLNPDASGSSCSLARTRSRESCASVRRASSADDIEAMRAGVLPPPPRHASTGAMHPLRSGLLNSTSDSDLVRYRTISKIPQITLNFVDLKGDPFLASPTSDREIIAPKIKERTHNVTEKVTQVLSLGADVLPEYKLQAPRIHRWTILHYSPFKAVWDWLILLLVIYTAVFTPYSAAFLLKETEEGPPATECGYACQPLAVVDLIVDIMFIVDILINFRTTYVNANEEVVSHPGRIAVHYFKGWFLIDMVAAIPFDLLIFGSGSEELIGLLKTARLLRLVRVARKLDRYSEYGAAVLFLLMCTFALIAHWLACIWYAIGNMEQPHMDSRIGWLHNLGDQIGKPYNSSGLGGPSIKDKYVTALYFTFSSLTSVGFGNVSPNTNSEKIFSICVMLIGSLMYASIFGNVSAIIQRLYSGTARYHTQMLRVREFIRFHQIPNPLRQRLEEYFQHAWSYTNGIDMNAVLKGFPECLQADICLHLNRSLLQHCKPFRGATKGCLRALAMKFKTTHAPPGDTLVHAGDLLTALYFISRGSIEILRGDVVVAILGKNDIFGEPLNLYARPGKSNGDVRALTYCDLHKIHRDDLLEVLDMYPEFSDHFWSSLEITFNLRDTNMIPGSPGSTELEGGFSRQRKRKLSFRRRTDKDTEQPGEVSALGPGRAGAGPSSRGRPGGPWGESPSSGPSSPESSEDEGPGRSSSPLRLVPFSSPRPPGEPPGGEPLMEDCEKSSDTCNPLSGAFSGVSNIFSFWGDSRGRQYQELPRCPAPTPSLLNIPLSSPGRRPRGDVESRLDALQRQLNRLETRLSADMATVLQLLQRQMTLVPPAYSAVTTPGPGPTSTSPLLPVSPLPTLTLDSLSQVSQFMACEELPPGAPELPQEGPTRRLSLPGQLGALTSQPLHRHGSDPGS

Structure (SMILES) | hERG current change (%, negative = inhibition) at 10uM [%]
Cc1ccc(C2=NC3(CCCC3)N=C2SCC(=O)Nc2ccc3c(c2)OCCO3)cc1 | 5.06
CSc1cccc(NC(=O)C2C3C=CC4(O3)C2C(=O)N(CCCN2CCOCC2)C4C(=O)NC2CCCCC2)c1 (stereo not shown) | 17.1
Cc1csc(NC(=O)CSc2nc3ccccc3c(=O)[nH]2)n1 | 4.76
CCN(C(=O)COC(=O)CNC(=O)C12CC3CC(CC(C3)C1)C2)C1CCS(=O)(=O)C1 (stereo not shown) | 16.6
COc1ccc(C(=O)Nc2ccc3ncccc3c2)cc1 | 21.8
CC1CCCCC1NC(=O)CN(C)S(=O)(=O)c1cccc2cccnc12 (stereo not shown) | -0.115
Cc1nn(C(=O)c2ccccc2)c2c1C(=O)CC(C)(C)C2 | -8.17
O=C(Oc1ccc(OC(=O)N2CCOCC2)cc1)c1ccccc1 | 10.8
Cn1c(CCc2nc3ccccc3[nH]2)nnc1SCC#N | 17.3
CCc1ccc2c(CN3CCN(S(=O)(=O)c4ccc5c(c4)OCCO5)CC3)cc(=O)oc2c1 | -4.65
C#CCNC(=O)C(C)c1ncc(C(F)(F)F)cc1Cl (stereo not shown) | 22.2
CSc1ccc(CN2CCC(n3nccc3NC(=O)CCCc3ccccc3)CC2)cc1 | -82.5
CCCC(=O)Nc1ccc(C(=O)Nc2cc(C(F)(F)F)ccc2Cl)cc1 | 15.4
COc1ccc(CCNC(=O)C2CCN(C(=O)c3cccs3)CC2)cc1 | -0.649
Cc1cccc(NC(=O)CN2CCN(C(=O)c3oc4c(Cl)cccc4c3C)CC2)c1C | -43.6
CCc1ccc(-c2nnn(Cc3nc4ccccc4s3)n2)cc1 | -10.3
Nc1nn(S(=O)(=O)c2ccccc2)cc1-c1cccc([N+](=O)[O-])c1 | 6.01
Cc1ccc(S(=O)(=O)N2CCC[C@H]2C(=O)OCC(=O)c2ccc3c(c2)NC(=O)CO3)cc1 | -42.1
O=C(NC1CC1)C1=C[C@@H](c2c[nH]c3ccccc23)C[C@@H](OCCCCO)O1 | 1.96
Cc1cc(C(=O)Nc2nc3ccc(Cl)cc3s2)nn1C | 5.89
O=C(O)C(=O)O.c1ccc(COc2ccc(OCCCN3CCCCC3)cc2)cc1 | -78.3
C/C(=N\Nc1cccc(Cl)c1)c1ccncc1 | 0.0738
Cc1nn(-c2ccccc2)c(N2CCCC2)c1/C=N/NC(=O)c1cc(-c2cccs2)nc2ccccc12 | -1.55
COC(=O)c1cc(NC(=S)NCc2ccc(Cl)cc2)cc(C(=O)OC)c1 | -20.6
CCc1ccc(Nc2ncc3c(n2)CC(C)CC3=O)cc1 (stereo not shown) | 14.3
O=C(COc1ccc2c3c(c(=O)oc2c1)CCC3)Nc1ccc(CN2CCOCC2)cc1 | 15.1
Cc1nn(-c2ccccc2)cc1C(=S)Nc1ccccc1 | 3.16
CC(NC(=O)OCc1ccccc1)c1ccccc1 (stereo not shown) | -22.9

Structure (SMILES) | hERG current change (%, negative = inhibition) at 10uM [%]
O=C(NCCCn1ccnc1)c1nc(Cn2cc([N+](=O)[O-])cn2)no1 | -0.453
NC(=O)Nn1c(CCC(=O)O)ccc1-c1ccc(F)cc1 | 2.6
Cc1ccc(NC(=O)C2C(c3ccccc3)C2(Cl)Cl)c(C)c1 (stereo not shown) | 1.9
CC(=O)c1c(C)oc(C)c1CSCc1ccc(C(=O)O)o1 | 0.541
C=CCSC1=N/C(=C\c2ccsc2)C(=O)S1 | 3.81
COCCNC(=O)c1c(N)n(Cc2ccco2)c2nc3ccccc3nc12 | -6.12
CCN(C(=O)CN1C(=O)NC(c2ccccc2)(c2ccccc2)C1=O)c1ccccc1 | 0.647
Cc1ccc(S(=O)(=O)N2CCCCC2)cc1NC(=O)Cn1cc(C(F)(F)F)ccc1=O | -3.88
CC(=O)Nc1ccc(S(=O)(=O)Nc2cccc(NC(=O)c3ccco3)c2)cc1 | 24.4
Cc1ccc(-c2cc3c(N=O)c4ccccc4c-3n[nH]2)cc1 | 18.1
O=c1c2cc(N3CCOCC3)ccc2[nH]c(=S)n1CCCN1CCCCC1 | -21.6
COc1cccc(N2CCN(C(=O)C3CCN(S(=O)(=O)c4ccc5c(c4)oc(=O)n5C)CC3)CC2)c1 | -7.61
O=C(CSc1nnc(CNc2ccc(F)cc2)o1)N1c2ccccc2Sc2ccccc21 | 11
Cc1nn(C)c(C)c1NS(=O)(=O)c1ccc(OC(F)(F)F)cc1 | 13.2
O=C(CN1C(=O)c2ccccc2C1=O)N1CCOCC1 | 4.68
Fc1cccc(Cl)c1-c1nnc2ccc(N3CCOCC3)nn12 | -6.07
CC(=C\C(=O)O)/C(=C/c1ccccc1)C(=O)O | 15.6
CSCCC(NC(=O)c1ccccc1)C(=O)Nc1ccc(C)cc1 (stereo not shown) | 4.39
CN1CCN(CCCNC(=O)CCc2nnc3n(Cc4ccccc4Cl)c(=O)c4ccccc4n23)CC1 | 5.29
Cc1[nH]n(-c2ccccc2)c(=O)c1N=Nc1cccc(C(=O)O)c1 | 23.1
COc1cccc(-n2ccnc2SCC(=O)N2CCc3ccccc32)c1 | -2.28
O=C(NC1CCCCC1)c1ccc(-n2cnnn2)cc1 | -1.57
C/C(=N\Nc1cccc2ccccc12)c1c(O)n(Cc2ccccc2)c(=O)[nH]c1=O | 19.9
Cc1ccc(OCC(O)CNS(=O)(=O)c2ccccc2C(=O)O)cc1 (stereo not shown) | -2.72
O=C1CN(C(=O)COC(=O)C23CC4CC(CC(O)(C4)C2)C3)c2ccccc2N1 | 2.04
Cl.O=C(CN1CCOCC1)n1c2c(c3ccccc31)CCCC2 | -6.9
COc1ccc(C)cc1S(=O)(=O)N(CC(=O)O)c1ccccc1 | 10.6

Reference: article PMC4336329 (PLoS ONE, 2015)
